Experimental data: PubChem BioAssay AID686979 (National Center for Advancing Translational Sciences (NCATS), 2013)
“And” between values parts separate entries of the source, which are not always exact repeats. Equal entries are not always repeated. In all, about 420,000 compounds went through this assay and about 50,000 (12%) were called active. The inconclusive results got no clear call from the source; some entries with a clear call stand among them for comparison. The call rests on the fitted dose curve; in most records, active means well fitted inhibition curve with a large enough effect; inconclusive means small, poorly fitted or top-dose-only effect; inactive means flat fitted curve, though single readings scatter. Where the call is inconclusive, the potency comes from a doubtful curve fit.

Assay: qHTS for Inhibitors of human tyrosyl-DNA phosphodiesterase 1 (TDP1): qHTS in cells in presence of CPT; further: nearly all actives have a fitted effect of over 55% in size
Settings: chicken DT40 Tdp1-/-;hTDP1 cells + 20 nM CPT, ATP luminescence, 48 h; activity change, negative = growth inhibition: at 46.2 µM (top of the series) unless noted
Method in brief: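 Chicken DT40 Tdp1-/- cells complemented with human TDP1, 400 cells/well, exposed to compounds plus 20 nM camptothecin for at least 48 h at 37 C; viability read as ATP content by CellTiter-Glo luminescence.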
On the % scale 0 is the no-effect control and ±100 the full control effect; potency means the concentration at half of the fitted maximal effect; tags describe the fitted curve by direction and shape.

**Q.** With `COc1ccccc1N1CCN(C(c2cccs2)C(C)NC(=O)c2cccs2)CC1` (stereo not drawn) as the compound, how does the Potency read?
**A.** The Potency was active: 16.4 µM.

**Q.** Which Potency does the source give for `CCOc1ccccc1NC(=O)Nc1cc(C(=O)NCc2ccc(C)cc2)ccc1N1CCCC1` here?
**A.** The Potency was active: 8.2 µM.

**Q.** With `C/C(=N\NC(N)=O)C1CC(Cc2ccccc2)C(=O)O1` (stereo not drawn) as the compound, how does the Potency read?
**A.** The Potency was “inactive”.

**Q.** For `COc1ccc(OC)c(-c2cc(C(=O)NCc3ccco3)no2)c1`, which Potency is on record?
**A.** The Potency was inconclusive: 18.4 µM [inhibitor, partial curve].

**Q.** Which Potency does the source give for `O=C(NCCCN1C(=O)c2ccccc2C1=O)OCc1ccccc1` here?
**A.** Its Potency is “inactive”.

**Q.** With `COC(=O)c1ccc2nc(-c3ccccc3)c(Cc3ccc(C)cc3)n2c1` as the compound, how does the Potency read?
**A.** The Potency was inconclusive: 18.4 µM [inhibitor, single point].

**Q.** With `Cc1nn(-c2ccccc2)c(C)c1/C=C1\C(=O)N(C)C(=S)N1C` as the compound, how does the Potency read?
**A.** The Potency was inconclusive: 25.9 µM [inhibitor, single point].

**Q.** For `CCS(=O)(=O)NCC(c1cccnc1)N1CCN(c2ccccc2OC)CC1` (stereo not drawn), which Potency is on record?
**A.** The Potency was “inactive”.

**Q.** Which Potency does the source give for `COc1ccccc1-c1cnc(C(O)c2cc(C)ccc2C)[nH]1` (stereo not drawn) here?
**A.** The Potency was active: 25.9 µM.

**Q.** Which Potency does the source give for `CC/C(=C(/CC)c1ccc(O)cc1)c1ccc(O)cc1` here?
**A.** The Potency was “inactive and inconclusive: 29.1 µM [inhibitor, single point]”.

**Q.** Which Potency does the source give for `Cc1ccc(NS(=O)(=O)c2cc(NC(=O)c3ccc4c(c3)NC(=O)CS4)ccc2C)c(C)c1` here?
**A.** Its Potency is inconclusive: 25.9 µM [inhibitor, single point].

**Q.** For `CC(=O)c1ccc(NC(=O)CSc2nc(C3CC3)nc3ccccc23)cc1`, which activity change, negative = growth inhibition is on record?
**A.** Its activity change, negative = growth inhibition is inconclusive: -34.3% [inhibitor].

**Q.** For `C/C(=N/N1CCN(Cc2cccc3ccccc23)CC1)c1ccco1`, which Potency is on record?
**A.** The Potency was “inactive”.

**Q.** Which Potency does the source give for `CCN(CC)c1ccc(/C=N/Nc2nc3ccccc3[nH]2)cc1` here?
**A.** The Potency was active: 3.26 µM.

**Q.** With `COc1ccc(NC(=O)Cn2c(=O)n(CC(=O)NCCc3ccccc3)c(=O)c3ccccc32)cc1` as the compound, how does the Potency read?
**A.** The Potency was “inactive”.

**Q.** With `CCCCC(CC)C(=O)Nc1ncc([N+](=O)[O-])s1` (stereo not drawn) as the compound, how does the Potency read?
**A.** Its Potency is inconclusive: 25.9 µM [inhibitor, single point].

**Q.** For `Cc1nc(SCc2c(F)cccc2Cl)n[nH]1`, which Potency is on record?
**A.** Its Potency is inconclusive: 29.1 µM [inhibitor, single point].

**Q.** Which Potency does the source give for `CCOC(=O)C(CCC(C)=O)C(=O)c1ccccc1` (stereo not drawn) here?
**A.** Its Potency is “inactive”.

**Q.** With `Cc1csc2nc(CSc3ccc(Cl)cc3)cn12` as the compound, how does the Potency read?
**A.** The Potency was inconclusive: 18.4 µM [inhibitor, single point].

**Q.** With `CCNC(=O)NC(=O)CSc1ccccc1F` as the compound, how does the Potency read?
**A.** The Potency was “inactive”.

**Q.** Which Potency does the source give for `COCC(C)n1c(C)cc(C(=O)CSc2ncccn2)c1C` (stereo not drawn) here?
**A.** The Potency was “inactive”.

**Q.** Which Potency does the source give for `O=C(NCCc1ccccc1)C(NS(=O)(=O)c1cccc2nsnc12)c1ccccc1` (stereo not drawn) here?
**A.** The Potency was “inactive”.

**Q.** For `COCCCNCCOc1ccccc1-c1ccccc1`, which Potency is on record?
**A.** The Potency was “inactive”.
